Results published in paper PMC11142363.
These are yes or no findings as the source states them, for the method shown. Binding seen in cells or lysates may run through a third protein. Some binding calls cover weakened binding; strength is not graded here.

Protein sequences, listed by entry. Tags and fused reporters are not part of them.
UniProt Q13148: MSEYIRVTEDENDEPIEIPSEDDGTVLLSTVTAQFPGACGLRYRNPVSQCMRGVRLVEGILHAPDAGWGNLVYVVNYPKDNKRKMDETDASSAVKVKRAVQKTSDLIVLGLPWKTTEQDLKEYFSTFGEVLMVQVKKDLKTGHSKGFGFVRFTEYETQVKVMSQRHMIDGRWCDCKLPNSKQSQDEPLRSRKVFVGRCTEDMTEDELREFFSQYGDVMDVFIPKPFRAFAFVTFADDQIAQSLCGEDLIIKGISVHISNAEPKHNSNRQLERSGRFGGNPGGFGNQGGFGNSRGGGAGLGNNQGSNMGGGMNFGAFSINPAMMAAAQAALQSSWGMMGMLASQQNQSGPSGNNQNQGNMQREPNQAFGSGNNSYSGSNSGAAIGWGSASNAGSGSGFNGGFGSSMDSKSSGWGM
UniProt P52701: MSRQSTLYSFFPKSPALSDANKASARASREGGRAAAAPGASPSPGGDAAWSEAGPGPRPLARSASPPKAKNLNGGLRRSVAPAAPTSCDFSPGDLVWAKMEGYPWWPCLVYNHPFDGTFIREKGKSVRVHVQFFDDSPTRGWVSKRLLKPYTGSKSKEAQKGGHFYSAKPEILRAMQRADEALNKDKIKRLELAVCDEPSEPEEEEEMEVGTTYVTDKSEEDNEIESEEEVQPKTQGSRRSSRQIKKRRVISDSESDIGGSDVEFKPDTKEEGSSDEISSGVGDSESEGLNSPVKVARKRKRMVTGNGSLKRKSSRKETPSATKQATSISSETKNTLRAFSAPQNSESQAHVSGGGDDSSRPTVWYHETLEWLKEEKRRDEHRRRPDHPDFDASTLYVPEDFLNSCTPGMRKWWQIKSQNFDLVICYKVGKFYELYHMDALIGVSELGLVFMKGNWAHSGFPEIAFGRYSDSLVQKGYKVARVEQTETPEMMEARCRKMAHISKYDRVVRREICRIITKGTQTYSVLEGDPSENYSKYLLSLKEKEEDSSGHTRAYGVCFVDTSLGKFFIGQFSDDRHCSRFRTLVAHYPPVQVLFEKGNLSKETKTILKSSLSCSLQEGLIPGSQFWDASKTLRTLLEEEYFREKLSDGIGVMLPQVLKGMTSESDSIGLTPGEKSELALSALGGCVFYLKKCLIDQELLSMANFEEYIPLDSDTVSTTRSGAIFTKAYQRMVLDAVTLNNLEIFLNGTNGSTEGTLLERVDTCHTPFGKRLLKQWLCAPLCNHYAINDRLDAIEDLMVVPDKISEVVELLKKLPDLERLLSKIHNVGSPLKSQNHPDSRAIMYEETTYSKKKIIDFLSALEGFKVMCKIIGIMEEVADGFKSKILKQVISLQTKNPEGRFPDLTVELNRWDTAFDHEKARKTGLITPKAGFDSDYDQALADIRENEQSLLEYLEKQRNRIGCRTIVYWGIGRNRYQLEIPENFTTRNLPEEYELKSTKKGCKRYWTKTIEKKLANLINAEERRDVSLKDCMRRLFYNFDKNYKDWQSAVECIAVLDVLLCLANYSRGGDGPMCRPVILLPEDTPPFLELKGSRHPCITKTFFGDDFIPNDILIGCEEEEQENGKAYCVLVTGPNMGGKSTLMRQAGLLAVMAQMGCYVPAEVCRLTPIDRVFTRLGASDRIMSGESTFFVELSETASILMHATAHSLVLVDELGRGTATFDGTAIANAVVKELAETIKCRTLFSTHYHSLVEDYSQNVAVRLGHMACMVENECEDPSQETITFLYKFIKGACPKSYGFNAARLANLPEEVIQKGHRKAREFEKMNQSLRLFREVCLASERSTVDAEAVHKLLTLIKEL
UniProt P40692: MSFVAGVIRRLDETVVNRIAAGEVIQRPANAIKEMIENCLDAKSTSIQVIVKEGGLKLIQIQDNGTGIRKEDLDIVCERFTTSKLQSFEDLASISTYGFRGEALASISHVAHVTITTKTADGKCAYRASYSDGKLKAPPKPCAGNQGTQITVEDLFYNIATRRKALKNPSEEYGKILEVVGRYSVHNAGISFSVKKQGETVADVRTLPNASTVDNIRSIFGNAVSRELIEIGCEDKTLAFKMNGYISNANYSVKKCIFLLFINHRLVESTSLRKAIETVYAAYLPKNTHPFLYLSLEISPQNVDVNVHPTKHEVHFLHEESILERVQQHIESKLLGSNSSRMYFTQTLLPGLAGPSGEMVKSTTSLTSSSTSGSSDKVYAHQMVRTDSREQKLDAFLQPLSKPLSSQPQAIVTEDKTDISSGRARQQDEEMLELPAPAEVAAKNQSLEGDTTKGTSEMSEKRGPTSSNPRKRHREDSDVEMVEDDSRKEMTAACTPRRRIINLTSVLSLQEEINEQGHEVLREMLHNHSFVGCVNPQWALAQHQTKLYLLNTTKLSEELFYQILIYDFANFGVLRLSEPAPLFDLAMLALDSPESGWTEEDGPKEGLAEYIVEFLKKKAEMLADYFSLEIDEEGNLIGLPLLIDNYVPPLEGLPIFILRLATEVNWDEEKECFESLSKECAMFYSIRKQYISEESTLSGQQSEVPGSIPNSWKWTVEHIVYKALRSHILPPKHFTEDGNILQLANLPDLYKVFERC

What was measured:
[1] = molecular target: TAR-DNA binding protein 43 (TDP43) (human (endogenous in SH-SY5Y; endogenous in human spinal cord tissue)) (UniProt Q13148); assay: co-IP; as a3, control immunoprecipitates (cells without MMS treatment)
[2] = molecular target: TAR-DNA binding protein 43 (TDP43) (human (endogenous in SH-SY5Y; endogenous in human spinal cord tissue)) (UniProt Q13148); assay: proximity ligation; PLA on ventral horn of lumbar spinal cord tissue of age-matched controls
[3] = molecular target: TAR-DNA binding protein 43 (TDP43) (human (endogenous in SH-SY5Y; endogenous in human spinal cord tissue)) (UniProt Q13148); assay: proximity ligation; PLA on ventral horn of lumbar spinal cord tissue of ALS-affected patients
[4] = molecular target: TAR-DNA binding protein 43 (TDP43) (human (endogenous in SH-SY5Y; endogenous in human spinal cord tissue)) (UniProt Q13148); assay: co-IP; Pierce Co-IP kit; 1 mg total lysate of MMS-treated differentiated SH-SY5Y cells, overnight at 4°C on resin with covalently linked anti-TDP43 antibody; Western blot with anti-MLH1 and anti-MSH6
[5] = molecular target: MSH6 (human (endogenous in SH-SY5Y; endogenous in human spinal cord tissue)) (UniProt P52701); assay: co-IP; reverse CoIP with anti-MLH1 and anti-MSH6 antibodies; lysate of differentiated SH-SY5Y cells without MMS treatment
[6] = molecular target: MLH1 (human (endogenous in SH-SY5Y; endogenous in human spinal cord tissue)) (UniProt P40692); assay: as above
[7] = molecular target: MSH6 (human (endogenous in SH-SY5Y; endogenous in human spinal cord tissue)) (UniProt P52701); assay: co-IP; reverse CoIP with anti-MLH1 and anti-MSH6 antibodies; lysate of MMS-treated differentiated SH-SY5Y cells
[8] = molecular target: MLH1 (human (endogenous in SH-SY5Y; endogenous in human spinal cord tissue)) (UniProt P40692); assay: as above

## MSH6 (from UniProt P52701 1-1360)
[1]
  binding: no binding (condition: cells without MMS treatment)
[2]
  binding: binds weakly
[3]
  binding: binds
[4]
  binding: binds

## TAR-DNA binding protein 43 (TDP43) (from UniProt Q13148 1-414)
[5]
  binding: no binding (condition: cells without MMS treatment)
[6]
  binding: no binding (condition: cells without MMS treatment)
[7]
  binding: binds
[8]
  binding: binds
